Among all 350,000 compounds or so, about 31,000 (8.9%) were called active. Inconclusive means that the source gave no clear call. Such entries were picked first, then a sample of the others. Calls follow the shape of the dose curve; as a rule, active = well fitted inhibition curve with a large enough effect; inconclusive = small, poorly fitted or top-dose-only effect; inactive = no such curve, though single readings can be large or run the other way. Potencies beside an inconclusive call are fits to weak or partial responses and may not hold up.
Target: Histone-lysine N-methyltransferase EHMT2 (Homo sapiens) (UniProt Q96KQ7)
UniProt Q96KQ7, sequence (Q96KQ7 whole entry, looked up): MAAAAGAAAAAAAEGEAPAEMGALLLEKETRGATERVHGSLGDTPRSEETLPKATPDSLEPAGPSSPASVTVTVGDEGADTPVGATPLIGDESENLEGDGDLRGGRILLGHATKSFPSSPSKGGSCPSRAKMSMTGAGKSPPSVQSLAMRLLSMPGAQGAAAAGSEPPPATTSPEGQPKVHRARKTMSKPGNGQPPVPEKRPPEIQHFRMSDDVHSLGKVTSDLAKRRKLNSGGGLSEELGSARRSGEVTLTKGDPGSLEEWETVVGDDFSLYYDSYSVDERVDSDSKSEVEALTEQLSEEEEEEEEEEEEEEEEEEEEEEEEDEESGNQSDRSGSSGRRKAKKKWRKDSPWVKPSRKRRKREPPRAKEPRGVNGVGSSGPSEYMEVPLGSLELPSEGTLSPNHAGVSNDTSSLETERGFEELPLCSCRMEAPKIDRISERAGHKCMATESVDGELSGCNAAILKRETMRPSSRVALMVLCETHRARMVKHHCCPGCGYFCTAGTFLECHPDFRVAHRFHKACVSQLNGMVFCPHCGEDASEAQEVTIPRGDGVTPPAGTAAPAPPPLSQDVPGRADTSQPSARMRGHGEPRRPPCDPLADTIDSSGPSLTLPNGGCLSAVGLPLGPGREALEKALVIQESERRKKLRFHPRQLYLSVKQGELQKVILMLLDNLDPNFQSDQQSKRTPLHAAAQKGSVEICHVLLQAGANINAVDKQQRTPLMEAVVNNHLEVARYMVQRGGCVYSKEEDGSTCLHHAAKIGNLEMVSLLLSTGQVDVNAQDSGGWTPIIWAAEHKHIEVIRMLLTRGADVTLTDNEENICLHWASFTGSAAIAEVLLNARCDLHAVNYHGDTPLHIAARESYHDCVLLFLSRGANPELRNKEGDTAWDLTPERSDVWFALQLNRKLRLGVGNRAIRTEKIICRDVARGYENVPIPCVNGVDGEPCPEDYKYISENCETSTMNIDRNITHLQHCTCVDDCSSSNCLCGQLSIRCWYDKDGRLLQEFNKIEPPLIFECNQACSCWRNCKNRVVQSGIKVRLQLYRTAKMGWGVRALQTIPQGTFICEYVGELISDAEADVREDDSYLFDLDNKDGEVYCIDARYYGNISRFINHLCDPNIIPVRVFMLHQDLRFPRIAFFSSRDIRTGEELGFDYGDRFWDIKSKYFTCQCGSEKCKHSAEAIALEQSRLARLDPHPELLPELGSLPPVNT
Test: qHTS Assay for Inhibitors of Histone Lysine Methyltransferase G9a; also: nearly all actives have a fitted effect of over 75% in size
Conditions: G9a H3K9 monomethylation, AlphaScreen, 2 h; activity, negative = inhibition: at 59 µM (top of the series) unless noted
Outline: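 Enzyme 20 nM + cpd, 15 min RT; add b-H3K9 pep 500 nM / SAM 20 uM; 2 h RT; anti-H3K9me1 Ab 0.5 ug/mL + SA donor / anti-rabbit acceptor beads 20 ug/mL each, 10 min; AlphaScreen read.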
% is scaled to controls: 0 for no effect and ±100 for the full control effect; potency is read from the fitted curve at half-maximal effect; tags tell the direction and shape of the fitted curve.

| Structure (SMILES) | Potency | activity, negative = inhibition |
| --- | --- | --- |
| CC1CC/C(=C\c2ccc3c(c2)OCO3)C(=O)/C1=C/c1ccc2c(c1)OCO2 (stereo unspecified) | inconclusive: 50.1 µM [inhibitor, single point] |  |
| CCOc1ccccc1C(=O)N(Cc1ccco1)C1CCS(=O)(=O)C1 (stereo unspecified) | inconclusive: 100 µM [inhibitor, single point] |  |
| CC(=O)c1cccc(NC(=O)C(C)OC(=O)c2cc(C)oc2C)c1 (stereo unspecified) | inconclusive: 56.2 µM [inhibitor, partial curve, poor fit] |  |
| COc1ccc2c(CC(=O)NC3CCCc4ccccc43)coc2c1 (stereo unspecified) | inconclusive: 79.4 µM [inhibitor, single point] |  |
| O=C(NCC1CCN(Cc2cccc(Cl)c2)CC1)Nc1cc(Cl)ccc1Cl | inconclusive: 5.62 µM [inhibitor, partial curve, poor fit] |  |
| CCN1CCCC1CNCc1ccccc1OCc1ccc(F)cc1 (stereo unspecified) | active: 56.2 µM |  |
| Cc1cccc(/C=C2\CS/C(=C\c3cccc(C)c3)C2=O)c1 | inconclusive: 11.2 µM [inhibitor, partial curve, poor fit] |  |
| Cc1ccc2nc(N3C(=O)C(O)=C(C(=O)c4ccco4)C3c3cccs3)sc2c1 (stereo unspecified) | active: 25.1 µM |  |
| N#CC(c1nc2ccccc2nc1N1CCCCC1)S(=O)(=O)c1ccc(Cl)cc1 (stereo unspecified) | inconclusive: 2.82 µM [inhibitor, partial curve, poor fit] |  |
| CC(=O)c1cccc(-n2nnnc2SCC(=O)Nc2cccc(NC(=O)c3ccco3)c2)c1 | inconclusive: 44.7 µM [inhibitor, partial curve] |  |
| Cc1ccc(C(=O)Nc2ccc(-c3cn4cccnc4n3)cc2)cc1C | inactive |  |
| Cc1ccc(N(CCCCN2C(=O)c3ccccc3C2=O)C(=O)c2cccc([N+](=O)[O-])c2)cc1 | inconclusive: 35.5 µM [inhibitor, partial curve, poor fit] |  |
| CS(=O)(=O)c1ccc(Cl)c(NC(=O)CSc2nnc(C3CC3)n2C2CC2)c1 | inconclusive: 12.6 µM [inhibitor, single point] |  |
| Cc1cc(NC(=O)CN2CCOCC2)n(-c2nc3ccccc3s2)n1 | inactive |  |
| COC(=O)c1ccc(OC(=O)CCc2cc(OC)c(OC)c(OC)c2)cc1 | inactive |  |
| Cc1ccc(CNC(=O)Cn2ccc3cc(S(=O)(=O)N4CCCCCC4)ccc32)cc1 | inactive |  |
| COC(=O)c1c(-c2cccs2)csc1NC(=O)COc1ccc(C(C)(C)C)cc1 | active: 3.98 µM |  |
| Cn1c(SCC(=O)NC2CCCCC2)nnc1-c1ccccn1 | inactive |  |
| O=C(N/N=C/c1c[nH]c2ccccc12)C1CC1c1ccccc1 (stereo unspecified) | inconclusive: 79.4 µM [inhibitor, single point] |  |
| CCOC(=O)CNC(=O)c1ccc(C)cc1 |  | inactive: 2.12% [at 12.7 µM] |
| O=C1CCN(C(=O)CSc2ccc(Cl)cc2)N1 | active: 14.1 µM |  |
| Cc1cc(C(=O)Nc2ccc3ccccc3c2)oc1C | inconclusive: 89.1 µM [inhibitor, single point] |  |
| COc1ccc(C2CC(=O)N(CC(=O)Nc3cc(C)ccc3C)c3ccccc3S2)cc1 (stereo unspecified) | inactive |  |

| Structure (SMILES) | Potency | activity, negative = inhibition |
| --- | --- | --- |
| CCOC(=O)c1sc(S(C)=O)c2c1CCc1conc1-2 (stereo unspecified) | active: 31.6 µM |  |
| CC(=O)Nc1ccc(C(=S)NCCCO)cc1 | inconclusive: 50.1 µM [inhibitor, partial curve, poor fit] |  |
| CCOc1ccc(Br)cc1S(=O)(=O)Nc1cccc(S(=O)(=O)N(C)C)c1 | inactive |  |
| Cc1ccc(-c2[nH][nH]c(=O)c(=O)c2N=Nc2ccccc2)cc1 | active: 44.7 µM |  |
| CCc1ccc(OCCOCC(O)CNC(C)CC)cc1 (stereo unspecified) | inconclusive: 14.1 µM [inhibitor, single point] |  |
| CCCCCS(=O)(=O)c1oc(-c2cccs2)nc1S(=O)(=O)c1ccc(C)cc1 | active: 3.55 µM |  |
| COc1ccc(NC(c2ccccc2)c2ccncc2)cc1 (stereo unspecified) | active: 7.08 µM |  |
| CC(C)N=C1SC(CC(=O)Nc2ccccc2)C(=O)N1C(C)C (stereo unspecified) | inconclusive: 70.8 µM [inhibitor, partial curve, poor fit] |  |
| Cc1ccc(NC(=S)Nc2ccc3cn[nH]c3c2)cc1C | inconclusive: 79.4 µM [inhibitor, single point] |  |
| CCCCc1cc(=O)oc2cc(OCC(=O)NC3CCN(Cc4ccccc4)CC3)ccc12 | inconclusive: 28.2 µM [inhibitor, partial curve, poor fit] |  |
| NCC(=O)N[C@@H](CCCN=C(N)N)C(=O)NCC(=O)N[C@@H](CC(=O)O)C(=O)N[C@@H](CC(N)=O)C(=O)N1CC[C@@H](C(=O)O)C1 | inactive |  |
| Nc1nccc(/C=C/c2c(Cl)cccc2Cl)n1 | inactive |  |
| O=C(O)c1[nH]c2ccccc2c1C=NCc1ccccc1Cl | active: 56.2 µM |  |
| CCCCOc1ccc(C(=O)Nc2cccc(-c3nc4cccnc4s3)c2)cc1 | inactive |  |
| Cc1noc(NS(=O)(=O)c2ccc(NC(=O)C34CC5CC(C3)CC(n3cnc(Br)n3)(C5)C4)cc2)c1C | inconclusive: 0.355 µM [inhibitor, partial curve, poor fit] |  |
| COc1ccc(NC(=O)COc2ccc(-c3nn(C)c(=O)c4ccccc34)cc2)cc1 | inactive |  |
| CC(=O)/C(=N\Nc1ccccc1)Oc1ccc([N+](=O)[O-])cc1 | inconclusive: 39.8 µM [inhibitor, partial curve, poor fit] |  |
| CC(C)=CCC1C(=O)N(c2ccccc2)N(c2ccccc2)C1=O | inconclusive: 7.94 µM [inhibitor, partial curve, poor fit] |  |
| Cc1ccc(C(=O)C2=C(O)C(=O)N(Cc3cccnc3)C2c2ccc(Br)cc2)o1 (stereo unspecified) | inconclusive: 31.6 µM [inhibitor, partial curve, poor fit] |  |
| COc1ccc(C2=NN(CC(=O)NCCc3ccc(OC)c(OC)c3)C(=O)CC2)cc1 | inactive |  |
| COc1ccc(N(C)C(=O)c2cn(C3CCCCC3)c(=O)c3c2c2ccccc2n3C)cc1 | inactive |  |
| CCOC(=O)C1=C(C)NC2=C(C(=O)c3ccccc32)C1c1cccc2ccccc12 (stereo unspecified) |  | inactive: -36.5% [at 12.7 µM] |
| Cc1cc(NC(=O)c2cccnc2)ccc1NC(=O)c1ccco1 | inconclusive: 89.1 µM [inhibitor, partial curve, poor fit] |  |

Reference: PubChem BioAssay AID504332 (National Center for Advancing Translational Sciences (NCATS), 2011)
